The results in this text go back to a collection of fitness landscapes (doi:10.1126/science.1257360).

This is one part of the list. Where only a bound is given, the exact number is not on record here.

First the molecules themselves.
B1: PhoQ; a variant is named by its letters at X, in order, P23837 (parent)
chain: MKKLLRLFFPLSLRVRFLLATAAVVLVLSLAYGMVALIGYSVSFDKTTFRLLRGESNLFYTLAKWENNKLHVELPENIDKQSPTMTLIYDENGQLLWAQRDVPWLMKMIQPDWLKSNGFHEIEADVNDTSLLLSGDHSIQQQLQEVREDDDDAEMTHSVAVNVYPATSRMPKLTIVVVDTIPVELKSSYMVWSWFIYVLSANLLLVIPLLWVAAWWSLRPIEALAKEVRELEEHNRELLNPATTRELTSLVRNLNRLLKSERERYDKYRTTLTDLTHSLKTPLXXLQXXLRSLRSEKMSVSDAEPVMLEQISRISQQIGYYLHRASMRGGTLLSRELHPVAPLLDNLTSALNKVYQRKGVNISLDISPEISFVGEQNDFVEVMGNVLDNACKYCLEFVEISARQTDEHLYIVVEDDGPGIPLSKREVIFDRGQRVDTLRPGQGVGLAVAREITEQYEGKIVAGESMLGGARMEVIFGRQHSAPKDE

In the test the parent is B1. Nature of the test: enrichment ratio after two sorts for PhoP signalling (ratio (wild type AVST 3.29)); higher = more functional. The following applies: with PhoP (E. coli).
As for HKAH, the enrichment ratio was at most 0.25.

As to IAWM, the enrichment ratio was at most 0.25.

In the case of ELRN, the enrichment ratio was at most 0.25.

Take LVGC: the enrichment ratio was at most 0.25.

In the case of VTKL, the enrichment ratio was at most 0.25.

In the case of NVMA, the enrichment ratio is at most 0.25.

DVNL: the enrichment ratio is at most 0.25.

Regarding YSWR, the enrichment ratio was at most 0.25.

On to PANT, for which the enrichment ratio was at most 0.25.

As for TMVI, the enrichment ratio was at most 0.25.

Consider FHQW, for which the enrichment ratio was at most 0.25.

For the variant GRMW, the enrichment ratio is at most 0.25.

VMAS: the enrichment ratio is at most 0.25.

As to KQAP, the enrichment ratio was at most 0.25.

In the case of MPET, the enrichment ratio is at most 0.25.

Turning to EESL, the enrichment ratio is at most 0.25.

Consider AKWQ, for which the enrichment ratio is at most 0.25.

With QISA, the enrichment ratio is 1.69.

TEEI: the enrichment ratio amounted to 4.63.

Turning to VAKL, the enrichment ratio was at most 0.25.

Take LPTK: the enrichment ratio is at most 0.25.

For LVLF, the enrichment ratio was at most 0.25.

As to MGNI, the enrichment ratio was at most 0.25.

Consider DYFR, for which the enrichment ratio was at most 0.25.

For VPFL, the enrichment ratio stood at 0.292.

Take CCPP: the enrichment ratio is at most 0.25.

Regarding PNDH, the enrichment ratio was at most 0.25.

With HGVL, the enrichment ratio was found to be 0.811.

ITGC: the enrichment ratio is at most 0.25.

As to TIML, the enrichment ratio came out at 2.74.

As for SYHE, the enrichment ratio was at most 0.25.

As to PARI, the enrichment ratio is at most 0.25.

As for PHVI, the enrichment ratio is at most 0.25.

Take YHHI: the enrichment ratio was at most 0.25.

With PYMD, the enrichment ratio is at most 0.25.

Consider GSNT, for which the enrichment ratio is at most 0.25.

On to VNKS, for which the enrichment ratio came out at 0.263.

With LAIV, the enrichment ratio was at most 0.25.

For the variant MFPC, the enrichment ratio is at most 0.25.

With MPEF, the enrichment ratio was at most 0.25.

As for KEQR, the enrichment ratio was at most 0.25.

Consider GASK, for which the enrichment ratio was at most 0.25.

Take SIHF: the enrichment ratio was at most 0.25.

As to VDLF, the enrichment ratio was at most 0.25.

Consider WSQH, for which the enrichment ratio was at most 0.25.

For IQLW, the enrichment ratio is at most 0.25.

EWST: the enrichment ratio is at most 0.25.

Consider MVGI, for which the enrichment ratio was at most 0.25.

In the case of AMAD, the enrichment ratio was at most 0.25.

On to PSWL, for which the enrichment ratio is at most 0.25.

Regarding VHLI, the enrichment ratio is at most 0.25.

For the variant RHLK, the enrichment ratio was at most 0.25.

For the variant DNCD, the enrichment ratio is at most 0.25.

For the variant QTTN, the enrichment ratio was at most 0.25.

Regarding ITNF, the enrichment ratio is at most 0.25.

As for VGRL, the enrichment ratio is at most 0.25.

Regarding FMWA, the enrichment ratio is at most 0.25.

As for RIWW, the enrichment ratio was at most 0.25.

Regarding MYCS, the enrichment ratio was at most 0.25.

For the variant NLLM, the enrichment ratio is at most 0.25.

Turning to DNPS, the enrichment ratio was at most 0.25.

Consider EKQF, for which the enrichment ratio is at most 0.25.

In the case of VSMR, the enrichment ratio is at most 0.25.

As for WIYD, the enrichment ratio was at most 0.25.

Consider LERH, for which the enrichment ratio was at most 0.25.

With FPIA, the enrichment ratio is at most 0.25.

Regarding RGNQ, the enrichment ratio was at most 0.25.

As for DTRF, the enrichment ratio is at most 0.25.

As for AGTS, the enrichment ratio is 7.67.

Turning to KFVA, the enrichment ratio is at most 0.25.

With YWKL, the enrichment ratio is at most 0.25.

Turning to TFHY, the enrichment ratio is at most 0.25.

Consider LEYE, for which the enrichment ratio was at most 0.25.

For PNIW, the enrichment ratio was at most 0.25.

For the variant FGYQ, the enrichment ratio was at most 0.25.

For RLKH, the enrichment ratio was at most 0.25.

For the variant WTWC, the enrichment ratio was at most 0.25.

In the case of KMSY, the enrichment ratio is at most 0.25.

On to NQCE, for which the enrichment ratio was at most 0.25.

On to FTKD, for which the enrichment ratio was at most 0.25.

On to SICL, for which the enrichment ratio was 11.3.

In the case of DHLH, the enrichment ratio was at most 0.25.

Consider RFDF, for which the enrichment ratio was at most 0.25.

On to QNSW, for which the enrichment ratio was at most 0.25.

For the variant NDPM, the enrichment ratio is at most 0.25.

Turning to DHLR, the enrichment ratio is at most 0.25.

Take VLWC: the enrichment ratio is at most 0.25.

AKKD: the enrichment ratio is at most 0.25.

VKCI: the enrichment ratio is at most 0.25.

As to ASRL, the enrichment ratio is at most 0.25.

In the case of DARQ, the enrichment ratio was at most 0.25.

As to HREG, the enrichment ratio was at most 0.25.

In the case of CNLL, the enrichment ratio was determined as 0.444.

Consider ITVF, for which the enrichment ratio was at most 0.25.

With RIMK, the enrichment ratio was at most 0.25.

MYSC: the enrichment ratio was at most 0.25.

Regarding LHVH, the enrichment ratio is at most 0.25.

For the variant NRAP, the enrichment ratio is at most 0.25.

Consider NNKG, for which the enrichment ratio is at most 0.25.

Regarding RFHK, the enrichment ratio was at most 0.25.

Turning to EADT, the enrichment ratio is at most 0.25.

As to DSIH, the enrichment ratio is at most 0.25.

Take WQSE: the enrichment ratio is at most 0.25.

As for TPTY, the enrichment ratio was at most 0.25.

Consider MSFI, for which the enrichment ratio was found to be 9.29.

Take VWMY: the enrichment ratio was at most 0.25.

For the variant MFDY, the enrichment ratio is at most 0.25.

Turning to WLAM, the enrichment ratio was at most 0.25.

Regarding INSS, the enrichment ratio was at most 0.25.

With FMPD, the enrichment ratio was at most 0.25.

With YWAY, the enrichment ratio is at most 0.25.

Turning to GSLP, the enrichment ratio was at most 0.25.

As for PSPH, the enrichment ratio was at most 0.25.

Turning to SFGM, the enrichment ratio is at most 0.25.

Consider FQDL, for which the enrichment ratio amounted to 0.265.

Turning to SYMN, the enrichment ratio is at most 0.25.

As for TGWQ, the enrichment ratio came to 22.6.

PIFN: the enrichment ratio is at most 0.25.

Take SNFT: the enrichment ratio was at most 0.25.

Turning to IYNV, the enrichment ratio was at most 0.25.

In the case of WMAG, the enrichment ratio was at most 0.25.

On to LYKA, for which the enrichment ratio was at most 0.25.

For the variant NNQF, the enrichment ratio is at most 0.25.

Regarding THCS, the enrichment ratio turned out to be 9.03.

Take TFNY: the enrichment ratio is at most 0.25.

GESM: the enrichment ratio was determined as 17.3.

With TTNI, the enrichment ratio came to 8.99.

Consider VELN, for which the enrichment ratio turned out to be 2.26.

YIMH: the enrichment ratio is at most 0.25.

Turning to HAQP, the enrichment ratio was at most 0.25.

Regarding GTTA, the enrichment ratio is at most 0.25.

Take WSEF: the enrichment ratio is at most 0.25.

For QWNL, the enrichment ratio is at most 0.25.

In the case of DLKP, the enrichment ratio is at most 0.25.

For DLLC, the enrichment ratio was at most 0.25.

On to HQVL, for which the enrichment ratio is at most 0.25.

On to RKLQ, for which the enrichment ratio is at most 0.25.

Turning to HGSA, the enrichment ratio was at most 0.25.

Take AHKN: the enrichment ratio was at most 0.25.

In the case of LKSC, the enrichment ratio was at most 0.25.

On to HGMN, for which the enrichment ratio is at most 0.25.

With WKSP, the enrichment ratio is at most 0.25.

Take GHYQ: the enrichment ratio was at most 0.25.

Turning to SMHN, the enrichment ratio was at most 0.25.

Take QNMH: the enrichment ratio is at most 0.25.

Regarding TFNE, the enrichment ratio was at most 0.25.

Regarding VIMA, the enrichment ratio was at most 0.25.

Turning to LRNL, the enrichment ratio is at most 0.25.

Turning to VQQH, the enrichment ratio was at most 0.25.

Take KETQ: the enrichment ratio was at most 0.25.

Consider PVMN, for which the enrichment ratio was at most 0.25.

Regarding EIGT, the enrichment ratio is at most 0.25.

Turning to DDES, the enrichment ratio is at most 0.25.
